Laboratory results from PubChem BioAssay AID1347417 (National Center for Advancing Translational Sciences (NCATS), 2020).
About 5,300 (4.4%) of roughly 120,000 compounds were called active. Inconclusive results, whose numbers are uncertain, are shown with a selection of clear calls. Calls follow the shape of the dose curve; as a rule, active = well fitted inhibition curve with a large enough effect; inconclusive = small, poorly fitted or top-dose-only effect; inactive = no such curve, though single readings can be large or run the other way. Potencies beside an inconclusive call are fits to weak or partial responses and may not hold up.

assay: qHTS Primary assay for Inhibitors of Plasmodium falciparum Dd2 growth in vitro; also: nearly all actives have a fitted effect of over 65% in size;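 as to activity, negative = inhibition: plate controls were DMSO vehicle for no effect and reference drug for full effect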; details: P. falciparum Dd2 growth, SYBR Green, 72 h; activity, negative = inhibition: at 28.9 µM (top of the series) unless noted; series mostly up to 28.9 µM
Summary of the method: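 Readout: SYBR Green fluorescence, 485 nm excitation, 535 nm emission, after ~16 h lysis at 37C. Before that, Dd2-infected red cells (2.5% hematocrit) grew 72 h with compound, 29 uM top final concentration.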
Potency is read from the fitted curve at half-maximal effect; tags tell the direction and shape of the fitted curve.

Compound | Potency | activity, negative = inhibition
CN(CCc1ccccn1)C(=O)CCC[C@@H]1[C@H]2CCCN3CCC[C@@H](CN1Cc1cccnc1)[C@@H]23 | inconclusive: 17.8 µM [inhibitor, single point] | 
COc1ccc(S(=O)(=O)NC[C@H]2C[C@@H]3CCN2C[C@@H]3CN2CCCCC2)cc1 | inactive | 
Cc1ccc(C)c(N2CCN(C(=O)c3cnn(-c4ccccc4Cl)c3C3CCN(C(=O)OC(C)(C)C)CC3)CC2)c1 | active: 3.55 µM | 
COc1ccc(C(=O)N2C[C@@H](C(N)=O)[C@H](c3n[nH]c(C)n3)C2)c(OC)n1 | inconclusive: 3.98 µM [inhibitor, single point] | 
CCN1C(=O)CCN(Cc2cccc(OC(F)(F)F)c2)CC12CCOCC2 | inconclusive: 10 µM [inhibitor, single point] | 
O=C(CSc1nc(-c2ccc(F)cc2)[nH]c1-c1ccc(F)cc1)Nc1ccc2c(c1)OCCO2 | inconclusive: 17.8 µM [inhibitor, single point] | 
CCC(=O)N1CCc2c(sc3ncnc(NCc4ccccc4)c23)C1 | inconclusive: 3.98 µM [inhibitor, partial curve, poor fit] | 
CN(C)S(=O)(=O)c1ccc(C(=O)NCCSc2c(-c3ccc(Cl)cc3)[nH]c3ccccc23)cc1 | active: 8.91 µM | 
CC(=O)N1CC2(Cc3ccccc31)CN(C(=O)Cc1ccccn1)C2 | inconclusive: 5.62 µM [inhibitor, single point] | 
COc1ccc(OCC(=O)N2CCN(Cc3cc(=O)n4nc(-c5ccc(OC)cc5)sc4n3)CC2)cc1 | inconclusive: 12.6 µM [inhibitor, single point] | 
CCc1ccccc1NC(=O)c1cc2c(s1)CN(C(C)C)C2 | inconclusive: 12.6 µM [inhibitor, single point] | 
COc1ccc(N2CCN(C(=O)CCc3c(C)nc4cc(-c5ccc(OC)cc5OC)nn4c3C)CC2)cc1 | inconclusive: 1 µM [inhibitor, single point] | 
CCOC(=O)c1c(NC(=O)c2ccccc2OCC)sc2c1CCC(CC)C2 (stereo unspecified) | inactive | 
COc1ccc(C(=O)NC2CC2)c(OC2CCN(Cc3cccc(SC)c3)CC2)c1 | inactive | 
COc1ccc(S(=O)(=O)NCC(c2ccc(N(C)C)cc2)N2CCc3ccccc32)cc1OC (stereo unspecified) | inconclusive: 0.316 µM [inhibitor, partial curve, poor fit] | 
Cc1ccc(NC(=O)N2CCCC(Cn3c(C4CC4)nc4cccnc43)C2)cc1F (stereo unspecified) | inconclusive: 2.51 µM [inhibitor, partial curve, poor fit] | 
CN(CCNC(=O)c1cccnc1N1CC2CC(C1)[C@H]1CCCC(=O)N1C2)C1CCCCC1 (stereo partly specified) | inconclusive: 3.98 µM [inhibitor, partial curve, poor fit] | 
COc1cc(NC(=O)Cn2c(-c3ccccc3)nc(C)c(CCO)c2=O)cc(OC)c1 | active: 8.91 µM | 
COc1ccccc1N1CCN(C(=O)c2cnn(-c3ccc(F)cc3F)c2C2CCNCC2)CC1 | inconclusive: 12.6 µM [inhibitor, partial curve, poor fit] | 
Cc1ccc(Nc2nnc(-c3ccc(C)c(S(N)(=O)=O)c3)c3ccccc23)cc1 | inconclusive: 11.2 µM [inhibitor, single point] | 
COc1ccc(CCNC(=O)C2(c3ccc(Cl)cc3)CCOCC2)cc1 | inactive | 

Compound | Potency | activity, negative = inhibition
COCC1CN(Cc2ccc(OC)c(OC)c2Cl)CC12CCNCC2 (stereo unspecified) | inconclusive: 12.6 µM [inhibitor, single point] | 
CCCn1cnc2c1CN(S(C)(=O)=O)[C@H](C(=O)OC)C2 | inactive | 
COc1ccc(C(=O)NCC2c3cc(OC)c(OC)cc3CCN2C(=O)NC(C)C)cc1 (stereo unspecified) | inconclusive: 3.16 µM [inhibitor, single point] | 
CC(C)CN1CCN(C(=O)CCC[C@@H]2[C@H]3CCCN4CCC[C@@H](CN2Cc2cccnc2)[C@@H]34)CC1 | inconclusive: 1.78 µM [inhibitor, full curve, poor fit] | 
COc1ccc(NC(=O)c2cc3c(N4CCSCC4)nc(C)cn3n2)cc1OC | inconclusive: 0.282 µM [inhibitor, full curve, poor fit] | 
CN1C[C@@H](NC(=O)c2ccco2)C[C@H]1c1nc(-c2cccnc2)no1 | inactive | 
Cc1cccc2c1nc1n2[C@@H](CNC2CCN(C)CC2)COC1 | inconclusive: 11.2 µM [inhibitor, partial curve, poor fit] | 
O=C(Nc1ccc(N2CCOCC2)cc1)C1CN(S(=O)(=O)C2CC2)CC12CCCCC2 (stereo unspecified) | inconclusive: 10 µM [inhibitor, partial curve, poor fit] | 
COc1ccc(NC(=O)C2CCCN(c3nnc(C)c4c(C)n(-c5ccccc5)nc34)C2)cc1Cl (stereo unspecified) | inconclusive: 8.91 µM [inhibitor, single point] | 
CCOc1ccccc1C(=O)NC1CCN(c2cc(-c3ccc(F)cc3)[nH]n2)C1 (stereo unspecified) | inconclusive: 3.16 µM [inhibitor, partial curve, poor fit] | 
O=C(Nc1nnc(S(=O)(=O)N2CCc3ccccc32)s1)c1cccc(Cl)c1 | inconclusive: 3.16 µM [inhibitor, partial curve, poor fit] | 
CCc1ccccc1NC(=O)CN1C(=O)NC2(CCCCC2)C1=O | inactive | 
Cc1cn2nc(C(=O)NCCCc3ccccc3)cc2c(N2CCCC2)n1 | inactive | 
O=C1NCc2ccccc2CC12CCCN(Cc1ccsc1)C2 (stereo unspecified) | inconclusive: 8.91 µM [inhibitor, partial curve, poor fit] | 
O=C(NC[C@H]1OC[C@@H](N(Cc2ccccn2)Cc2ccccn2)[C@@H]1O)C1CC1 | inconclusive: 10 µM [inhibitor, partial curve] | 
Cc1ccc(CN2CCc3nc(N(C)C)[nH]c(=O)c3CC2)cc1C |  | inactive: 15.8% [at 5.79 µM]
Cc1cccc2c1nc1n2[C@@H](CNS(=O)(=O)c2ccc(F)cc2)COC1 | inconclusive: 31.6 µM [inhibitor, single point] | 
COCCC1(NC(=O)C2CCOCC2)CCN(C(=O)C(C)c2ccccc2)CC1 (stereo unspecified) | inactive | 
CN(Cc1ccccc1)C(=O)CSc1nc(-c2ccc(F)cc2)cc(C(F)(F)F)n1 | inconclusive: 17.8 µM [inhibitor, single point] | 
CN1CCN(Cc2nc(C3(O)CCN(C(=O)C4CCCCC4)CC3)cs2)CC1 | inactive | 
N#Cc1ccc(C(=O)N2CCN3C(=O)N(Cc4ccccc4)C(=O)[C@H]3C2)cc1 | inactive | 

Compound | Potency | activity, negative = inhibition
CC(=O)N[C@H]1CC[C@]2(C)CC[C@@H]([C@H](C)C(=O)NCc3cccs3)[C@H](O)[C@H]2[C@@H]1C | inconclusive: 14.1 µM [inhibitor, single point] | 
Fc1ccc(-c2cc(CC3(NCc4ccc5c(c4)OCO5)COC3)no2)cc1 | inactive | 
Cc1[nH]c(=O)[nH]c(=O)c1CC(=O)N[C@@H]1COCC[C@@H]1OCc1ccccc1 | inactive | 
CN(C(=O)c1cc2nc(-c3ccc4c(c3)OCO4)cc(C(F)(F)F)n2n1)c1ccc(OC(F)(F)F)cc1 | inconclusive: 1.58 µM [inhibitor, full curve, poor fit] | 
O=[S+]([O-])(c1ccc(Br)cc1)c1nnn2c1nc(N1CCCCC1)c1ccccc12 | inconclusive: 11.2 µM [inhibitor, single point] | 
Cn1cc(CN2C[C@H](C(=O)NCc3ccccc3)C[C@H]2c2cccc(C(F)(F)F)c2)cn1 | inconclusive: 12.6 µM [inhibitor, single point] | 
COc1ccc(NS(=O)(=O)c2ccc(-n3cccn3)cc2)cc1OC | inconclusive: 11.2 µM [inhibitor, partial curve, poor fit] | 
COc1ccc(N2C(N)=C(C#N)C(c3cc(CN4CCOCC4)cs3)C3=C2CCCC3=O)cc1 (stereo unspecified) | inconclusive: 10 µM [inhibitor, single point] | 
Cn1nc(C(=O)N2CCCN(C(=O)C3CC3)C(c3ccccc3)CC(=O)NCC2)c2ccccc21 (stereo unspecified) | inconclusive: 3.16 µM [inhibitor, partial curve, poor fit] | 
COc1cncc(-c2cccc(COc3ccc4c(cnn4CC[S+](C)(=O)[O-])c3)c2)c1 | inconclusive: 10 µM [inhibitor, partial curve, poor fit] | 
C[S+](=O)([O-])c1ccc(-c2ccc3ncn(-c4ccc(F)cc4F)c(=O)c3n2)cc1 | inactive | 
O=C(NCCCN1CCCCCC1)C1CCN(C(=O)N2CC3CC(C2)[C@H]2CCCC(=O)N2C3)CC1 (stereo partly specified) | inactive | 
Cc1noc(C)c1-c1cc2c(cc(C)n2CCN(C)C)c(Nc2ccn(C)n2)n1 | inconclusive: 0.562 µM [inhibitor, full curve, poor fit] | 
CCn1c(CN2CCCCC2)nc2cc(NC(=O)c3cccc([N+](=O)[O-])c3)ccc21 | active: 3.55 µM | 
Cc1ccc(NC(=O)N2CCCN(S(C)(=O)=O)C(c3ccccc3)CC(=O)NCC2)cc1C (stereo unspecified) | inconclusive: 17.8 µM [inhibitor, single point] | 
CN1C(=O)[C@@H]2C[C@@H](CN2C(=O)CCC(=O)O)Oc2ccccc21 | inconclusive: 7.94 µM [inhibitor, partial curve, poor fit] | 
Cc1ccccc1Cn1cc(-c2ccncc2)cc1C(=O)Nc1ccc2c(c1)OCO2 | inconclusive: 2.51 µM [inhibitor, full curve, poor fit] | 
COc1ccc(-c2cn(C[C@H]3CC4CCN3C[C@@H]4C(=O)NCc3ccccc3OC)nn2)cc1 (stereo partly specified) | inconclusive: 17.8 µM [inhibitor, single point] | 
COc1ccc(S(=O)(=O)c2c(O)c(C)cc(NC(=O)c3ccccc3)c2C(C)C)cc1 | inactive | 
